Target: T1, recombinant c-Kit (R&D Systems) (UniProt P10721 part only)
T1 construct: c-Kit receptor tyrosine kinase, recombinant; No catalogue number printed; the discussion calls it 'recombinant soluble c-Kit'; also called surface-immobilized c-Kit; recombinant soluble c-Kit; source: bought: R&D Systems
Assay: SPR; ProteOn XPR36; c-Kit amine-coupled to a GLC chip; SCF proteins flowed in PBST at 100 µL/min, 25 °C; KD from the equilibrium-binding phase, 1:1 Langmuir model; BSA channel subtracted
Settings: both partners purified

T1 sequence (P10721 26-524): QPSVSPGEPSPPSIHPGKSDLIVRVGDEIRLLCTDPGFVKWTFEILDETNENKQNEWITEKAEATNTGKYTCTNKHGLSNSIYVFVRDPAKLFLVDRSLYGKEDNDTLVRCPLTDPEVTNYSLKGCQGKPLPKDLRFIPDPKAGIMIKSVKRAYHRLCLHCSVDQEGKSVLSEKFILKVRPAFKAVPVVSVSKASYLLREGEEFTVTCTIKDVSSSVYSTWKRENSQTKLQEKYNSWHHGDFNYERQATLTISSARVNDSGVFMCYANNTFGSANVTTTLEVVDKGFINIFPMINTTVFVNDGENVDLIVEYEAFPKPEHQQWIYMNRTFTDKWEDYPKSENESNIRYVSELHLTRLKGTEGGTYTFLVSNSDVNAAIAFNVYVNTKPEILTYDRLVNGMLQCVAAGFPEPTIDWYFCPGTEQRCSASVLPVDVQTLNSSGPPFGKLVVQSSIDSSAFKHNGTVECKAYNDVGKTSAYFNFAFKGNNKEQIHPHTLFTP

B1: SCFM, stem cell factor V49L F63L double mutant, soluble (ligand)
chain: not shown
notes: stem cell factor (SCF) with V49L and F63L; also called SCFM V49L F63L; SCF monomer; source: purified in non-glycosylated form (production described in the Supplementary Materials)
A Kd of 146 nM was found for B1 in this work.

Source: publication PMC7588011, “Engineering Stem Cell Factor Ligands with Different c-Kit Agonistic Potencies” (Molecules, 2020)
